Assay results taken from PubChem BioAssay AID624417 (National Center for Advancing Translational Sciences (NCATS), 2012).
About 6,400 (1.6%) of roughly 410,000 compounds were called active. Inconclusive means that the source gave no clear call. Such entries were picked first, then a sample of the others. The call rests on the fitted dose curve; in most records, active means well fitted inhibition curve with a large enough effect; inconclusive means small, poorly fitted or top-dose-only effect; inactive means no such curve, though single readings can be large or run the other way. Potencies of inconclusive entries are left out as doubtful fits.

molecular target: Glucagon-like peptide 1 receptor (Homo sapiens) (UniProt P43220); experiment: qHTS of GLP-1 Receptor Inverse Agonists (Inhibition Mode); conditions: HEK293 GLP-1R CRE-luciferase, luminescence, 24 h, GLP-1R form is constitutively active; series mostly up to 38.3 µM; further: nearly all actives have a fitted effect of over 55% in size
Chain of UniProt P43220 (P43220 whole entry, looked up): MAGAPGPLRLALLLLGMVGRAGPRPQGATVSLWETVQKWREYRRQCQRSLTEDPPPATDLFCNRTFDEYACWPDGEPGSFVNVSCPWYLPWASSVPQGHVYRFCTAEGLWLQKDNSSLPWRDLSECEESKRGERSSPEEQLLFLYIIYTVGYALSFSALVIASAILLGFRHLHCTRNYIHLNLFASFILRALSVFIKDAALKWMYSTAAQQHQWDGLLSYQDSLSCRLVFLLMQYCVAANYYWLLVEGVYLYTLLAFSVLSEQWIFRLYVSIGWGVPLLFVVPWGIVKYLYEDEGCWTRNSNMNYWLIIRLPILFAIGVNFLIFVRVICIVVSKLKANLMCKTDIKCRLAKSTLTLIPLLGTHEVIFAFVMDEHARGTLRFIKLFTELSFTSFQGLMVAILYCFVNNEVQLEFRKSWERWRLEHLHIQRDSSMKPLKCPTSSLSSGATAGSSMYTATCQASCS
Summary of the method: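 Assay principle: reduced luminescence from a cAMP-responsive reporter in HEK293 cells co-expressing a constitutively active GLP-1R. Conditions: 24 hr compound incubation, 37 deg C, 5% CO2.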
Potency means the concentration at half of the fitted maximal effect; tags describe the fitted curve by direction and shape.

| Compound | Potency |
| --- | --- |
| COc1ccc(S(=O)(=O)NN(C)c2nc(C(F)(F)F)nc3ccccc23)cc1 | inconclusive [inhibitor, partial curve, poor fit] |
| CCOc1ccccc1O[C@H](c1ccccc1)[C@H]1CNCCO1 | inconclusive [inhibitor, single point] |
| C=CCc1ccccc1OCC(O)CN1CCN(c2ccccc2F)CC1 (stereo not given) | active: 10 µM |
| Cc1ccc(NC(=O)c2cc(S(=O)(=O)Nc3ccc(C)cc3)cs2)cc1 | inconclusive [inhibitor, single point] |
| O=C(Cc1ccccc1)NCC(=O)N/N=C/c1ccc([N+](=O)[O-])s1 | inconclusive [inhibitor, partial curve, poor fit] |
| Cn1cc(CN2CCC(CO)CC2)c(-c2ccc(Oc3ccccc3)cc2)n1 | active: 10 µM |
| COc1ccccc1OC(C)C(=O)Nc1nc(-c2ccc(S(=O)(=O)N3CCOCC3)cc2)cs1 (stereo not given) | inactive |
| Cc1ccc(S(=O)(=O)Nc2cccc(NC(=O)CN3CCCCC3)c2)cc1 | inconclusive [inhibitor, partial curve, poor fit] |
| C(=NN=C1c2ccccc2-c2ccccc21)c1c[nH]c2ccccc12 | inconclusive [inhibitor, partial curve, poor fit] |
| Clc1cc(Br)ccc1OCCn1ccnc1 | inactive |
| Cc1c(Cc2ccccc2)c(=O)n2c([nH]c3ccccc32)c1C#N | inconclusive [inhibitor, single point] |
| COc1cccc(N2CCN(C(=O)c3ccc(CS(=O)c4ccc(Cl)cc4)o3)CC2)c1 (stereo not given) | inconclusive [inhibitor, full curve, poor fit] |
| COC(=O)C1=CN(C2CC2)C=C(C(=O)OC)C1c1ccc(C(=O)OC)cc1 | inactive |
| COc1ccccc1OCc1nc(Cc2ccc(Cl)cc2)no1 | inconclusive [inhibitor, single point] |
| COc1ccc2c(c1OC)C(=O)N(c1cccc(C)c1)C2 | inactive |
| Cc1cc(Nc2ccc(F)cc2)nc(-n2nc(C)cc2C)n1 | inactive |
| O=S(=O)(Nc1ccc(Cl)cc1)c1cccc(S(=O)(=O)c2ccc(Cl)c(Cl)c2)c1 | inconclusive [inhibitor, single point] |
| O=c1c(N=Nc2ccccc2)c[nH]n1-c1ccccc1 | inactive |
| COc1ccccc1NC(=O)Nc1nc(CC(=O)Nc2ccccc2F)cs1 | inconclusive [inhibitor, single point] |
| OC(c1ccc2ccccc2c1)c1ncc(-c2cccc3ccccc23)[nH]1 (stereo not given) | inconclusive [inhibitor, single point] |
| Cc1ccc(C(=O)Nc2ccc3nc(N4CCCCC4)cc(C)c3c2)cc1F | inconclusive [inhibitor, partial curve, poor fit] |
| COc1ccc(S(=O)(=O)N2CCN(Cc3cccc(Cl)c3)CC2)cc1 | inconclusive [inhibitor, single point] |

| Compound | Potency |
| --- | --- |
| Brc1ccc(CNc2cc3c(cc2Br)OCCO3)cc1 | inconclusive [inhibitor, single point] |
| CSc1ccccc1C(=O)Nc1cccc([N+](=O)[O-])c1C | inconclusive [inhibitor, single point] |
| Cc1ccc(N(C)S(=O)(=O)c2cccc(C(=O)Nc3nnc(C4CC4)s3)c2)cc1 | inconclusive [inhibitor, single point] |
| ClC1(Cl)CC1CSc1nc2ccccc2[nH]1 (stereo not given) | inconclusive [inhibitor, single point] |
| COc1ccc(OC)c(NC(=O)C2(C)CCN2Cc2ccccc2OC(F)F)c1 (stereo not given) | inconclusive [inhibitor, partial curve, poor fit] |
| O=C1/C(=C/c2ccccc2)CN(C(=O)CCN2CCOCC2)C/C1=C\c1ccccc1 | inconclusive [inhibitor, single point] |
| Cc1ccc(C)c(N2CCN(CCCNC(=O)Nc3ccc(Cl)cc3)CC2)c1 | inconclusive [inhibitor, partial curve, poor fit] |
| CC(C)[C@H](NC(=O)c1cccc(S(=O)(=O)N2CCOCC2)c1)C(=O)Nc1nc2ccccc2s1 | inconclusive [inhibitor, partial curve, poor fit] |
| COc1ccc(/C=N/Nc2ncc(-c3ccccc3)cn2)c(OC)c1 | inactive |
| COc1cccc(NC(=O)CN(C)C(C)C(=O)N2CCCCC2)c1 (stereo not given) | inconclusive [inhibitor, single point] |
| COc1ccc(C2=C(CN(C)C)C(c3ccccc3)c3ccccc3O2)cc1 (stereo not given) | inconclusive [inhibitor, full curve, poor fit] |
| Cc1ccc(S(=O)(=O)NCc2cccc([N+](=O)[O-])c2)cc1 | inconclusive [inhibitor, single point] |
| COCC(C)n1c(SCC(=O)NCCC2=CCCCC2)nc2ccccc2c1=O (stereo not given) | inconclusive [inhibitor, partial curve, poor fit] |
| COC(=O)c1ccc(CN2CCN(Cc3ccc(F)cc3)C(CCO)C2)cc1 (stereo not given) | inconclusive [inhibitor, partial curve, poor fit] |
| COc1ccc(S(=O)(=O)N2CCCCCC2)cc1NC(=O)Cc1cccc(C(F)(F)F)c1 | active: 10 µM |
| COc1ccccc1N1CCN(CC(O)COc2ccc(C)cc2C(C)(C)C)CC1 (stereo not given) | inconclusive [inhibitor, partial curve, poor fit] |
| CCN(CC)CCNC(=O)Cn1nc(-c2ccccc2)c2ccccc2c1=O | inconclusive [inhibitor, single point] |
| CC1(C(=O)Nc2ccc(F)c(Cl)c2)Cc2c(-c3cccc(C(F)(F)F)c3)ccnc2O1 (stereo not given) | inconclusive [inhibitor, single point] |
| Fc1ccc(N/N=C/C=C/c2ccccc2)c(F)c1 | inconclusive [inhibitor, partial curve] |
| CCCCCCCCN1C(=O)[C@H](CC(=O)NCc2cccc(C(F)(F)F)c2)C[C@@]2(C(=O)OCC)CCCC=C12 | inconclusive [inhibitor, partial curve, poor fit] |
| Cc1cccc(Nc2c3c(nc4nncn24)CCC3)c1C | inactive |
| CCN(CC)C(=O)CCn1nc(-c2ccc(C)cc2)c2ccccc2c1=O | inconclusive [inhibitor, partial curve, poor fit] |

| Compound | Potency |
| --- | --- |
| COC(=O)c1cnc(Oc2c(Cl)cc(N)cc2Cl)cc1C(F)(F)F | inconclusive [inhibitor, partial curve, poor fit] |
| CCC1(C(=O)c2ccccc2)C(c2cccc([N+](=O)[O-])c2)C1(C(=O)OC)C(=O)OC (stereo not given) | inconclusive [inhibitor, partial curve, poor fit] |
| CCOc1ccccc1C1CC(=O)Nc2cc(C)c(C)cc21 (stereo not given) | inconclusive [inhibitor, full curve, poor fit] |
| O=C(C1CC1c1ccccc1)N1CCN(c2cccc(Cl)c2)CC1 (stereo not given) | inconclusive [inhibitor, single point] |
| O=C1[C@@H](Oc2ccccc2)[C@@H](c2cnc3ccccc3c2)N1c1ccccc1 | inconclusive [inhibitor, single point] |
| CCc1ccc(N2CCN(C(=O)c3ccc4c(c3)OCO4)CC2)cc1 | inconclusive [inhibitor, single point] |
| CC(C)c1ccc(O)c(NC(=S)NC(=O)CCc2ccccc2)c1 | inconclusive [inhibitor, single point] |
| COc1cnn(Cc2ccccc2)c(=O)c1SCc1ccccc1 | inconclusive [inhibitor, single point] |
| CCOC(=O)C1C(c2ccc(O)c(OC)c2)NC(=S)NC1(O)C(F)(F)F (stereo not given) | inactive |
| CC(=O)c1cccc(NC(=O)Cn2nc(C)n3cccc3c2=O)c1 | inactive |
| O=C(NCc1ccccc1)C1c2ccccc2OCC(=O)N1CCCN1CCOCC1 (stereo not given) | inactive |
| CSc1ccc(CN(C)CC(=O)Nc2cccc(Br)c2)cc1 | inconclusive [inhibitor, partial curve] |
| O=C(c1ccc(F)cc1)N(NC(=O)C(O)(c1ccccc1)c1ccccc1)c1ccccc1 | inconclusive [inhibitor, single point] |
| Fc1ccccc1N1CCN(C2CCCN(Cc3cccc(C(F)(F)F)c3)C2)CC1 (stereo not given) | inconclusive [inhibitor, partial curve, poor fit] |
| O=C1NC(Nc2nc3ccccc3s2)(C(F)(F)F)C(=O)N1C1CCCCC1 (stereo not given) | inconclusive [inhibitor, partial curve, poor fit] |
| CCOc1ccc(C(=O)Nc2ccc3nc(SCCOc4ccccc4)sc3c2)cc1 | inactive |
| O=C(NCc1ccco1)c1ccc(COc2cc(Cl)ccc2Cl)cc1 | inconclusive [inhibitor, single point] |
| CCc1ccc(-n2cnc3cc(C(=O)NCc4ccc(C)cc4)ccc32)cc1 | inconclusive [inhibitor, single point] |
| NC(=O)c1ccccc1NC(=O)c1ccc(-c2ccc(Br)cc2)o1 | inactive |
| CCCc1nc2ccc(C)cn2c1Cc1ccccc1OC | inconclusive [inhibitor, single point] |
| COc1cccc(NC(=S)N(CCCN2CCOCC2)Cc2cn(C)c3ccccc23)c1 | inconclusive [inhibitor, single point] |
